Results from PubChem BioAssay AID1345083 (National Center for Advancing Translational Sciences (NCATS), 2018).
Where “and” joins values, the source holds several entries; their conditions need not be identical. Equal entries are not always repeated. About 6,200 (6.6%) of roughly 94,000 compounds were called active. Inconclusive means that the source gave no clear call. Such entries were picked first, then a sample of the others. The call rests on the fitted dose curve; in most records, active means well fitted inhibition curve with a large enough effect; inconclusive means small, poorly fitted or top-dose-only effect; inactive means flat fitted curve, though single readings scatter. Where the call is inconclusive, the potency comes from a doubtful curve fit.

assay: Cytotoxic Profiling in HEK 293 Cell Line of Diverse Libraries Using Quantitative High-Throughput Screening; details: HEK 293 viability, ATP luminescence (CellTiter-Glo), 48-72 h; series mostly up to 115 µM; further: nearly all actives have a fitted effect of over 60% in size
How it was run: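 CellTiter-Glo luminescence (cellular ATP) was read after 48 or 72 hr of compound exposure at 37 degree Celsius. Cells were HEK 293 plated at 250 cells/well.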
Potency means the concentration at half of the fitted maximal effect; tags describe the fitted curve by direction and shape.

| Structure (SMILES) | Potency |
| --- | --- |
| CCCCc1ccc(NC(=O)CN2C(=O)NC3(CCCCC3)C2=O)cc1 | inconclusive: 89.1 µM [inhibitor, partial curve] |
| Cc1ccc(NC(=O)N2CCc3c(c4ccccc4n3CC3CC3)C2)cc1 | inconclusive: 44.7 µM [inhibitor, partial curve, poor fit] |
| Cn1ncc2c(C(=O)N3CCN(Cc4ccccc4)CC3)cc(-c3ccc(C(F)(F)F)cc3)nc21 | inconclusive: 39.8 µM [inhibitor, partial curve, poor fit] |
| COCCc1noc([C@@H]2CN(CC3CCCCC3)C[C@H]2CO)n1 | inactive |
| Cc1ccc2nc(C3CCN(CC4CCCC4)CC3)[nH]c(=O)c2c1 | inactive |
| O=C(C[C@H]1NC(=O)c2ccccc2NC1=O)NCCc1nc(-c2ccccc2)cs1 | inconclusive: 79.4 µM [inhibitor, partial curve, poor fit] |
| CSc1cccc(NC(=O)N[C@H]2C[C@@H](C(=O)N[C@H](Cc3c[nH]c4ccccc34)C(N)=O)N(C(=O)c3cccn3C)C2)c1 | inactive |
| Cc1nc(N2CCCCC2)ncc1C(=O)NC1CCOC2(CCOCC2)C1 (centres undefined) | inconclusive: 31.6 µM [inhibitor, single point] |
| COc1ccc(-c2noc([C@@H]3C[C@@H](O)CN3Cc3cccnc3)n2)cc1 | inconclusive: 35.5 µM [inhibitor, partial curve, poor fit] |
| O=C(Nc1ccc2ncnc(N3CCCC3)c2c1)c1ccc(F)c(F)c1 | inconclusive: 50.1 µM [inhibitor, partial curve, poor fit] |
| CCOc1ccc(C2Cn3nnc(-c4nc(C(C)(C)C)no4)c3CO2)cc1 (centres undefined) | inactive |
| CCCNC(=O)C1COC2(CCN(C(=O)c3ccc(OC)cc3)CC2)N1C(=O)c1ccc(F)cc1 (centres undefined) | inactive |
| O=C(NCc1ccc(F)cc1)C1CCN(c2cc(C(F)(F)F)ncn2)CC1 | inconclusive: 39.8 µM [inhibitor, full curve, poor fit] |
| COc1nccc(N2CCC(CC(=O)NC3CCN(Cc4ccccc4)CC3)CC2)n1 | inconclusive: 56.2 µM [inhibitor, partial curve, poor fit] |
| COc1ccc(Nc2nc(-c3c(C)noc3C)cc3cc(CO)oc23)cc1OC | inconclusive: 56.2 µM [inhibitor, partial curve, poor fit] |
| COc1ccc2[nH]c(C[C@@H]3C[C@@H](C(C)C)[C@H](CNCc4ccccc4O)C=C3C)nc2n1 | active: 44.7 µM |
| Cc1nnc2ccc(N3CCC(N[S+](=O)([O-])c4ccccc4)CC3)nn12 | active: 44.7 µM |
| O=C(C1CCCN([S+](=O)([O-])c2cccs2)C1)N1CCCC(c2nc3ccncc3[nH]2)C1 (centres undefined) | inconclusive: 89.1 µM [inhibitor, single point] |
| CN1C[C@@H](NC(=O)c2ccc3ccccc3c2)C[C@H]1c1nc(-c2ccc3c(c2)OCO3)no1 | inconclusive: 8.91 µM [inhibitor, full curve, poor fit] |
| CCS(=O)(=O)N1CC(F)(F)C[C@H]1c1nc(-c2cccnc2)no1 | inactive |

| Structure (SMILES) | Potency |
| --- | --- |
| COc1ccc(S(=O)(=O)N[C@H]2C[C@@H](c3nc(Cc4ccccc4)no3)N(C)C2)cc1 | inconclusive: 126 µM [inhibitor, partial curve, poor fit] |
| O=C(CCC(F)(F)F)N1CCC(CCC(=O)N2CCC(Cc3ccccc3)CC2)CC1 | inconclusive: 50.1 µM [inhibitor, partial curve, poor fit] |
| O=C(c1cc(F)ccc1Cl)N1CCC(Cc2nc(-c3ccc(F)cc3)no2)CC1 | inconclusive: 35.5 µM [inhibitor, partial curve, poor fit] |
| Cc1ccc(SC2CCN(Cc3cc4n(n3)CCNC4)CC2)cc1 | active: 14.1 µM |
| CCOC(=O)c1ccccc1NC(=O)CN1C(=O)NC(c2ccc(C)cc2)C2=C1COC2=O (centres undefined) | active: 31.6 µM |
| COc1ccc(CC(=O)Nc2ccc(=O)n3c2[C@@H]2C[C@@H](CN(S(=O)(=O)c4ccc(OC)cc4)C2)C3)cc1 | inactive |
| O=C(C1CC1)N(C1CCOCC1)C1CCN(S(=O)(=O)c2ccc(F)c(Cl)c2)CC1 | inactive |
| Cc1cc(OC2CN([S+](=O)([O-])c3ccccc3)C2)ccc1F | inconclusive: 126 µM [inhibitor, single point] |
| COc1ccccc1CN1CC(COc2ccccc2)C2(C1)CN(C(=O)c1cn[nH]c1)C2 (centres undefined) | inconclusive: 100 µM [inhibitor, partial curve, poor fit] |
| CC(=O)N1CCc2cc(S(=O)(=O)NCCCC(=O)N3CCC(CCOc4ccccc4)C3)ccc21 (centres undefined) | inconclusive: 15.8 µM [inhibitor, full curve, poor fit] |
| Cc1nn(Cc2ccccc2)c(C)c1[C@@H]1C=C[C@@H](NC(=O)c2ccc(F)c(Cl)c2)C1 | active: 28.2 µM |
| O=C1CCN(C(=O)CCCc2ccccc2)CCCC(c2nc(-c3cccnc3)no2)CCN1 (centres undefined) | inconclusive: 89.1 µM [inhibitor, single point] |
| O=C1CCC2(CCCO2)CCN1Cc1ccc(OC(F)(F)F)cc1 (centres undefined) | inconclusive: 89.1 µM [inhibitor, single point] |
| COc1ccc(N2CC(c3noc(-c4ccc(Cl)cc4)n3)CC2=O)cc1 (centres undefined) | inconclusive: 89.1 µM [inhibitor, single point] |
| COC(=O)c1ccc2c(c1)nc1n2[C@@H](CNCc2cccc(OC)n2)COC1 | inconclusive: 44.7 µM [inhibitor, full curve] |
| O=C1N(CCc2ccccc2)c2ccccc2C12CCN(Cc1ccncc1)C2 (centres undefined) | active: 25.1 µM and active: 35.5 µM |
| CCC(=O)N(C1CCOCC1)C1CCN(S(=O)(=O)c2cc(C)ccc2C)CC1 | inconclusive: 89.1 µM [inhibitor, single point] |
| O=C(CC1CCOC2(CCN(C3CCN(Cc4ccccc4)CC3)CC2)C1)N1CCCC1 (centres undefined) | inconclusive: 44.7 µM [inhibitor, partial curve, poor fit] |
| CCOC(=O)N1CCC(=O)N(CCOC)C[C@H]2CN(C)c3ccccc3[C@@H]21 | inconclusive: 35.5 µM [inhibitor, partial curve, poor fit] |
| Cc1noc(C)c1[S+](=O)([O-])N1CCc2nc(C(C)C)nc(-c3ccc(O)cc3)c2C1 | inconclusive: 50.1 µM [inhibitor, partial curve, poor fit] |

| Structure (SMILES) | Potency |
| --- | --- |
| Cc1nc2cccnc2n1CC1CCCN(S(=O)(=O)c2cc(F)ccc2F)C1 (centres undefined) | inconclusive: 89.1 µM [inhibitor, single point] |
| CCC1=C(C(=O)OC)C(c2cccc(F)c2)N2C(CC(=O)NCc3cccc(F)c3)=CSC2=N1 (centres undefined) | inconclusive: 50.1 µM [inhibitor, partial curve, poor fit] |
| O=C(Cc1c[nH]c2ncc(-c3cccnc3)cc12)Nc1ccc(C(F)(F)F)cc1 | inconclusive: 39.8 µM [inhibitor, full curve] |
| CCN1CCN(Cc2cc(C)cc(CN(C)Cc3ncc(C)[nH]3)c2C)CC1 | inconclusive: 89.1 µM [inhibitor, single point] |
| NC(=O)[C@@H]1CN(C(=O)c2cccc3c2OC(F)(F)O3)[C@H]2c3ccccc3O[C@@H]12 | inconclusive: 79.4 µM [inhibitor, single point] |
| CN(Cc1ccc(-c2ccccc2)cc1)Cc1ccc(N(C)C)cc1 | inconclusive: 89.1 µM [inhibitor, single point] |
| O=C(c1ccccc1F)N1CCC(C(=O)N2CCC(c3ccccc3)CC2)CC1 | inconclusive: 89.1 µM [inhibitor, partial curve, poor fit] |
| CCc1[nH]c2c(CNC(=O)CC3C(=O)NCCN3C(C)C)cc(C)cc2c1C (centres undefined) | inactive |
| CC1=C[C@@H](CN2CCC(O)CC2)[C@H](C(C)C)C[C@H]1Cc1nnc(-c2ccc(N(C)C)cc2)o1 | inconclusive: 50.1 µM [inhibitor, partial curve, poor fit] |
| O=c1[nH]c(C2CCCN(Cc3ccccc3C(F)(F)F)C2)nn1-c1ccccc1 (centres undefined) | inconclusive: 50.1 µM [inhibitor, partial curve, poor fit] |
| O=C(NC1CCN(c2ccc3nnc(-c4ccccc4)n3n2)C1)c1ccccc1F (centres undefined) | inconclusive: 79.4 µM [inhibitor, partial curve, poor fit] |
| CC(=O)Nc1ccc(-c2c(-c3cccc(C)c3)nn(-c3ccc(F)cc3)c2OC(C)=O)cc1 | inconclusive: 100 µM [inhibitor, partial curve, poor fit] |
| c1cc(-c2ccsc2)n2nc(C3CCC3)nc2n1 | inconclusive: 50.1 µM [inhibitor, partial curve, poor fit] |
| COC(=O)[C@@H]1Cc2ncn(Cc3ccc(Cl)cc3)c2CN1CCCc1ccccc1 | active: 25.1 µM |
| Cc1ccc(C(=O)N2CCN(c3cc(-c4ccc(Cl)cc4)[nH]n3)CC2)cc1F | inconclusive: 50.1 µM [inhibitor, partial curve, poor fit] |
| O=C(NC[C@H]1OC[C@@H](N(Cc2ccccc2F)Cc2ccccc2F)[C@@H]1O)c1ccccc1 | inconclusive: 89.1 µM [inhibitor, single point] |
| O=c1c2c(CO)c(-c3ccccc3)nn2ccn1Cc1ccccc1Cl | inconclusive: 56.2 µM [inhibitor, partial curve, poor fit] |
| O=C1c2cc(N3CCOCC3)nc(-c3ccccc3)c2CN1Cc1ccccc1 | active: 50.1 µM |
| CSc1ccc(-c2cccc(C(=O)NCCNC(=O)c3ccccc3)c2)cc1 | inconclusive: 12.6 µM [inhibitor, full curve, poor fit] |
